Measured values reported in PubChem BioAssay AID445 (National Center for Advancing Translational Sciences (NCATS), 2006).
Screen size: about 110,000 compounds; about 40 (0.04%) were called active. The inconclusive results got no clear call from the source; some entries with a clear call stand among them for comparison. Calls come from the whole dose curve; as a rule, active = well fitted curve in the direction sought with a large enough effect in the signal ratio (not every such curve was filed as active); inconclusive = small, poorly fitted or top-dose-only effect, or a change in a side signal; inactive = flat fitted curve, though single readings scatter; the % refers to the signal ratio. A potency beside an inconclusive call is a rough fit, not a confirmed value.

Assay: IkB Signaling;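 for IkBa stabilization activation: 0% = basal untreated cells and 100% = reference inhibitor full response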
Details: ABC-DLBCL IkBa-CBG/CBR dual luciferase ratio (green luciferase fused to IkBa over red control in OCI-Ly3 lymphoma cells), 4 h, scaled: untreated 0%
Summary of the method: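 In this assay, an IκBα–CBG68 fusion accumulates when IKK-driven degradation is blocked; native CBR normalizes for cell number. OCI-Ly3 cells were treated 4 h with compound and doxycycline, then green and red light read after Chroma-Glo addition.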

[1] = IkBa stabilization activation: at 57.1 µM (top of the series), proteasome inhibitor 100% unless noted
Potency is the fitted concentration of half-maximal effect.

CCCn1c(=O)c2ccccc2n2c(SCc3nc4ccccc4s3)nnc12
IkBa stabilization activation [1]: inconclusive: 6.98% [signal inhibitor]

c1ccc(-c2cc(-c3nnc4sc(-c5ccccn5)nn34)[nH]n2)cc1
IkBa stabilization activation [1]: inconclusive: 4.43% [signal inhibitor]

O=C(COc1ccccc1Br)c1ccc(O)cc1O
IkBa stabilization activation [1]: inconclusive: 13.4% [signal inhibitor]

C=CCn1c(NC(=O)c2ccco2)c(S(=O)(=O)c2ccccc2)c2nc3ccccc3nc21
IkBa stabilization activation [1]: inactive

CCc1ccc(CNc2ncc(-c3cccc(OC)c3)n2C)cc1
IkBa stabilization activation [1]: inactive

O=C(CC1CCCCC1)N1CCN(c2ccccn2)CC1
IkBa stabilization activation [1]: inconclusive: 17.4% [signal inhibitor]

Cc1cccc(C)c1NC(=O)Cn1c(=O)n(Cc2ccc(C(=O)NCc3ccco3)cc2)c(=O)c2sccc21
IkBa stabilization activation [1]: inactive

CCOC(=O)Cc1cc(C(=O)Nc2ccc(Br)cc2)sc1-c1ccc(C)cc1
IkBa stabilization activation [1]: inconclusive: 5.54% [signal inhibitor]

O=C(O)CCC(=O)Nc1ccc(N2CCCCCC2)cc1
Potency [1]: inconclusive: 15.8 µM [rising, partial curve]

COc1cccc(-c2nnc(SCC(=O)N3CCCCC3)o2)c1
IkBa stabilization activation [1]: inactive

CN1/C(=C\C(=O)COC(=O)Cn2nnc(-c3ccccc3)n2)C(C)(C)c2ccccc21
IkBa stabilization activation [1]: inconclusive: 1.28% [signal inhibitor]

CCn1c(SCC(=O)NCc2ccco2)nc2cccnc21
IkBa stabilization activation [1]: inactive

COc1ccc(CNC(=O)C2CCCN(S(=O)(=O)N(C)c3ccc(F)cc3)C2)cc1OC (configuration not stated)
IkBa stabilization activation [1]: inconclusive: -0.844% [signal inhibitor]

O=C(OCc1cc(=O)n2nc(-c3cccs3)sc2n1)c1cccc(Cl)c1
IkBa stabilization activation [1]: inconclusive: 5.37% [signal inhibitor]

COc1ccc(S(=O)(=O)c2c(N)n(Cc3ccco3)c3nc4ccccc4nc23)cc1
IkBa stabilization activation [1]: inconclusive: -0.0378% [signal inhibitor]

CCCCOC(=O)C1Cc2ccccc2C(=O)O1 (configuration not stated)
IkBa stabilization activation [1]: inactive

Cc1ccccc1C(=O)Nc1cccc(OCc2cc(=O)n3c4c(sc3n2)CCCC4)c1
IkBa stabilization activation [1]: inconclusive: -1.34% [signal inhibitor]

COc1ccc(NC(=O)Cn2cc(S(=O)(=O)N3CCC(C)CC3)c3ccccc3c2=O)cc1Cl
IkBa stabilization activation [1]: inconclusive: 2.47% [signal inhibitor]

Cc1ccc(C)c(N2CCN(C(=O)c3ccc(-c4nc(COc5ccccc5)c(C)o4)cc3)CC2)c1
IkBa stabilization activation [1]: inconclusive: 1.67% [signal inhibitor]

COc1cccc(CNS(=O)(=O)c2ccc3[nH]c4c(c3c2)CCCCC4)c1
IkBa stabilization activation [1]: inconclusive: -0.821% [signal inhibitor]

COC(=O)c1cc(C(=O)OC)cc(S(=O)(=O)Nc2ccc(Cl)c(N)c2)c1
IkBa stabilization activation [1]: inconclusive: 9.54% [signal inhibitor]

COc1ccc(CN(Cc2ccco2)C(=O)COc2ccc(Cl)cc2C)cc1
IkBa stabilization activation [1]: inconclusive: 2.17% [signal inhibitor]

O=C(CCCCn1c(=O)[nH]c2ccsc2c1=O)N1CCN(c2cccc(C(F)(F)F)c2)CC1
IkBa stabilization activation [1]: inconclusive: -0.0506% [signal inhibitor]

CC(=O)N1CCc2c(sc3c2c(=O)n(-c2cccc(Cl)c2C)c(=O)n3Cc2ccccc2C)C1
IkBa stabilization activation [1]: inconclusive: 5.19% [signal inhibitor]

Cn1cc(C(=O)c2ccc(Cl)cc2)cc1-c1nc2ccccc2n1C
IkBa stabilization activation [1]: inconclusive: -6.16% [signal inhibitor]

CCN1CCN(Cc2c(O)ccc3oc(C)c(C(=O)Nc4ccc(OC)cc4)c23)CC1
IkBa stabilization activation [1]: inconclusive: -0.301% [signal inhibitor]

O=C(CSc1nc2cc(Cl)ccc2o1)c1cccs1
IkBa stabilization activation [1]: inconclusive: 3.98% [signal inhibitor]

CCC(=O)OCC(=O)[C@@]1(OC(=O)CC)[C@H](C)C[C@@H]2[C@@H]3[C@H]([C@@H](O)C[C@@]21C)[C@]1(C)C=CC(=O)C=C1C[C@@H]3Cl
IkBa stabilization activation [1]: inconclusive: 12.7% [signal activator] [at 25.6 µM, scaled: untreated 0%, proteasome inhibitor 100%]

Cc1ccc(SCc2[nH]nc3c2C2(CCSCC2)C(C#N)=C(N)O3)cc1
IkBa stabilization activation [1]: inconclusive: 4.21% [signal inhibitor]

CC(C)CNC(=O)N1CCN(S(=O)(=O)c2ccc3c(ccn3C)c2)CC1
IkBa stabilization activation [1]: inactive

CN1CCN(c2ccccc2NC(=O)c2ccc(Br)o2)CC1
IkBa stabilization activation [1]: inactive

N#C/C(=C\c1ccc(O)c(O)c1)C(=O)NCCCc1ccccc1
IkBa stabilization activation [1]: inconclusive: 1.25% [signal inhibitor]
IkBa stabilization activation (at 57.1 µM (top of the series), proteasome inhibitor 100%): inactive: -5.83%

CNc1ncnc2ccc(-c3ccccc3C)cc12
IkBa stabilization activation [1]: inactive: 2.8% [at 11.4 µM, scaled: untreated 0%, proteasome inhibitor 100%]

CCCCNC(=O)Nc1ccc(Br)cn1
IkBa stabilization activation [1]: inconclusive: 1.26% [signal inhibitor]

CCOC(=O)c1ccccc1NC(=O)Cn1nnc2sc3c(c2c1=O)CCCC3
IkBa stabilization activation [1]: inconclusive: 6.2% [signal inhibitor]

Cc1ccc(C(C(=O)NC2CCCCC2)N(C)Cc2ccccc2)cc1 (configuration not stated)
IkBa stabilization activation [1]: inactive

CCn1c(=O)c(C(=O)NCc2ccccn2)c(O)c2ccccc21
IkBa stabilization activation [1]: inconclusive: 6.92% [signal inhibitor]

Cc1oc2c(c1C(=O)Nc1ccc(F)c(F)c1)C1=NCCN1C=N2
IkBa stabilization activation [1]: inactive

CCOc1ccc(NC(=O)c2oc3ccccc3c2NC(=O)C2CCCCC2)cc1
IkBa stabilization activation [1]: inconclusive: 0.446% [signal inhibitor]

COc1ccc(CCNc2oc(COc3ccccc3Cl)nc2C#N)cc1OC
IkBa stabilization activation [1]: inconclusive: -7.55% [signal inhibitor]

CCc1nc(N(CC)CC)c2oc3ccccc3c2n1
IkBa stabilization activation [1]: inactive

Cc1cccc(NC(=O)CSc2nc(=O)n(Cc3ccncc3)c3c2CCC3)c1C
IkBa stabilization activation [1]: inconclusive: -1.4% [signal inhibitor]

Cc1ncsc1C(=O)Nc1nc2c(s1)CCCC2
Potency [1]: inconclusive: 10 µM [signal inhibitor, partial curve]

CCOC(=O)Cn1c(=O)oc2cc(S(=O)(=O)Nc3ccc(F)cc3)ccc21
IkBa stabilization activation [1]: inconclusive: 5.81% [signal inhibitor]

O=c1c(-c2cccs2)nc2cnc(N3CCNCC3)nc2n1CCc1ccccc1
IkBa stabilization activation [1]: inactive: -0.034% [at 11.4 µM, scaled: untreated 0%, proteasome inhibitor 100%]

Oc1ccc(/C=C/c2nc(-c3ccccc3O)n(-c3ccccc3)n2)c(O)c1
IkBa stabilization activation [1]: inconclusive: -7.53% [signal inhibitor]

CCCCCNC(=O)c1cc2c(=O)n3ccccc3nc2n1C
IkBa stabilization activation [1]: inconclusive: 0.407% [signal inhibitor]

CN(C)C(=O)c1ccc(NC(=O)Cn2nc(-c3ccccc3)c3ccccc3c2=O)cc1
IkBa stabilization activation [1]: inconclusive: 2.5% [signal inhibitor]

CCOC(=O)c1cccc(NS(=O)(=O)c2cc(-c3cnc(C)o3)ccc2OC)c1
IkBa stabilization activation [1]: inconclusive: -0.419% [signal inhibitor]

CCOC(=O)c1c(NC(=O)COc2cc(C)ccc2C(C)C)sc2c1CCCC2
IkBa stabilization activation [1]: inconclusive: 16.1% [signal inhibitor]

CC(=O)c1ccc(NC(=O)C2CCN(S(=O)(=O)c3cccc4cccnc34)CC2)cc1
IkBa stabilization activation [1]: inactive

CC(C)(C)Nc1ncnc2c1cnn2-c1ccccc1
IkBa stabilization activation [1]: inconclusive: 3.61% [signal inhibitor]

Cc1cccc(NC(=O)c2c(NC(=O)c3cccs3)sc3c2CCC(C)C3)c1 (configuration not stated)
Potency [1]: inconclusive: 3.16 µM [signal inhibitor, full curve]

CCOC(=O)C1=C(C)N=C(/N=C/N(C)C)SC1c1ccccc1 (configuration not stated)
IkBa stabilization activation [1]: inconclusive: 0.301% [signal inhibitor]

COc1ccc2[nH]cc(CCNc3ncnc4ccc(-c5ccoc5)cc34)c2c1
IkBa stabilization activation [1]: inactive: -5.9% [at 11.4 µM, scaled: untreated 0%, proteasome inhibitor 100%]

Cc1cnc(NC(=O)CSc2nnc(-c3ccccc3)o2)s1
Potency [1]: inconclusive: 25.1 µM [signal inhibitor, partial curve]

O=C(CCCc1ccccc1)NC1CC(=O)N(c2ccc(Cl)cc2)C1 (configuration not stated)
IkBa stabilization activation [1]: inactive

C=C[C@@]1(C)CC(=O)[C@@]2(O)[C@@]3(C)[C@@H](O)CCC(C)(C)[C@@H]3[C@H](OC(=O)CCN(C)C)[C@H](OC(C)=O)[C@@]2(C)O1
IkBa stabilization activation [1]: inactive

COc1ccccc1C(=O)n1nc(-c2cccnc2)nc1NCc1ccccc1
IkBa stabilization activation [1]: inconclusive: 0.434% [signal inhibitor]

Cc1ccc(OCC(=O)Nc2nnc(SCc3cc(=O)c4ccccc4[nH]3)s2)cc1C
IkBa stabilization activation [1]: inconclusive: 0.45% [signal inhibitor]

Cc1ccc(Cl)cc1NC(=O)c1ccc(NC(=O)N2CCSc3ncccc32)cc1
IkBa stabilization activation [1]: inconclusive: 1.55% [signal inhibitor]

COc1ncc2nc(-c3cc(F)cc(F)c3)c(=O)n(Cc3cccs3)c2n1
IkBa stabilization activation [1]: inactive: 3.92% [at 11.4 µM, scaled: untreated 0%, proteasome inhibitor 100%]

COc1cc(NC(=O)c2cc3sccc3n2C)cc(OC)c1
Potency [1]: inconclusive: 20 µM [signal inhibitor, partial curve]

Oc1c(Br)cc(Br)cc1CN(Cc1cc(Br)cc(Br)c1O)C1CCCCC1
IkBa stabilization activation [1]: inactive: 2.81% [at 11.4 µM, scaled: untreated 0%, proteasome inhibitor 100%]

CCCCn1c(NC(C)CC)nc2c1c(=O)[nH]c(=O)n2C (configuration not stated)
IkBa stabilization activation [1]: inactive

CCOc1ccc(Nc2c(S(=O)(=O)c3ccc(C)cc3)cnc3cc(OC)c(OC)cc23)cc1
IkBa stabilization activation [1]: inconclusive: 7.6% [signal inhibitor]
